# Measurements taken from PubChem BioAssay AID1460 (National Center for Advancing Translational Sciences (NCATS), 2008).
# Among all 270,000 compounds or so, about 5,800 (2.1%) were called active. The shares of active, inactive and inconclusive entries below differ from those in the screen. Calls follow the shape of the dose curve; as a rule, active = well fitted inhibition curve with a large enough effect; inconclusive = small, poorly fitted or top-dose-only effect; inactive = flat fitted curve, though single readings scatter. Potencies of inconclusive entries are doubtful fits and often do not repeat.
# Biological target: Microtubule-associated protein tau (Homo sapiens) (UniProt P10636)
# Chain of UniProt P10636 (P10636 whole entry, looked up): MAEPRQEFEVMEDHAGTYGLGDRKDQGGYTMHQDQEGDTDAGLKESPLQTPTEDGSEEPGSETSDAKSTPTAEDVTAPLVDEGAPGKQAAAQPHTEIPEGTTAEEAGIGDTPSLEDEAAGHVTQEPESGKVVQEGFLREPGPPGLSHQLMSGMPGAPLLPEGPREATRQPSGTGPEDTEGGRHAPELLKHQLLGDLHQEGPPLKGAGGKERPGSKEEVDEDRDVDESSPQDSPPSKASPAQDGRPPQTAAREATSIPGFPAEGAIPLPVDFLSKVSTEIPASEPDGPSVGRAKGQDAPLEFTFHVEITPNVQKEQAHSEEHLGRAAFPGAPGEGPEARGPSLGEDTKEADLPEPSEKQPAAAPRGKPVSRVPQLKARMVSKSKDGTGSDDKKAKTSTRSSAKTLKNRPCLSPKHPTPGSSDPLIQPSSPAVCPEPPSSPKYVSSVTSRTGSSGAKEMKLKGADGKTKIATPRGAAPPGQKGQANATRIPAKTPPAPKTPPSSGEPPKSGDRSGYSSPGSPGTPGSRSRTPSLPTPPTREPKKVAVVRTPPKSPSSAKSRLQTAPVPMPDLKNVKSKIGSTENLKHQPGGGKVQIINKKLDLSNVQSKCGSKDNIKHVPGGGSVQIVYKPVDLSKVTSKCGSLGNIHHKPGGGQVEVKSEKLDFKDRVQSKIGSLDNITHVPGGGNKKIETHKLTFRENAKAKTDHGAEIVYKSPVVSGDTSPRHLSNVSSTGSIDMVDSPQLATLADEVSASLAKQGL
# Test: qHTS for Inhibitors of Tau Fibril Formation, Thioflavin T Binding; also: nearly all actives have a fitted effect of over 55% in size
# Conditions: recombinant tau K18 P301L (four-repeat tau fragment), heparin-induced fibrillization, ThT fluorescence; series mostly up to 57.4 µM; activity, negative = inhibition: at the top concentration
# Summary of the method: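 Recombinant human tau K18 fragment […] carrying P301L, 15 uM unlabeled plus 0.24 uM Alexa 594-labeled, was fibrillized with 20 uM heparin in 100 mM sodium acetate pH 7 for 6 hr at 37 C; 30 uM ThT fluorescence read after 1 hr.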
# % is scaled to controls: 0 for no effect and ±100 for the full control effect; potency is read from the fitted curve at half-maximal effect; tags tell the direction and shape of the fitted curve.
SMILES,Potency,"activity, negative = inhibition"
CCN(CC)S(=O)(=O)c1ccc(N/N=C/c2ccc(O)cc2)nc1,"inconclusive: 17.8 µM [inhibitor, single point]",
COc1ccc2c(c1)CC(C(=O)NCCCN1CCN(c3ccc(F)cc3)CC1)CO2 (configuration not stated),,inactive: -8.45%
O=C(CSCc1ccccc1)N1CCN(c2ccc(F)cc2)CC1,"inconclusive: 2.82 µM [inhibitor, partial curve]",
Clc1ccc(N2CCN(c3ncnc4c3nc3n4CCCC3)CC2)cc1,"inconclusive: 3.16 µM [inhibitor, full curve]",
COC(=O)COc1ccc(C2Nc3c(Cl)ccc(C(=O)O)c3C3C=CCC32)cc1 (configuration not stated),"inconclusive: 35.5 µM [inhibitor, single point]",
COc1ccc(CCN(Cc2ccccn2)C(=S)Nc2cccc(SC)c2)cc1OC,,inactive: -14%
CCOC(=O)c1c(C)nc2sc(C(=O)Nc3ccc(OC)cc3)c(N)c2c1-c1ccc(OC)cc1,"inconclusive: 11.2 µM [inhibitor, partial curve]",
COc1cccc(N=C2C(=O)N3CCCc4cccc2c43)c1,"inconclusive: 22.4 µM [inhibitor, single point]",
COc1ccc(CNc2ccc3cn[nH]c3c2)c(OC)c1OC,active: 28.2 µM,
Cc1ccc(Cl)cc1N1CCN(c2ncnc3onc(C)c23)CC1,"inconclusive: 20 µM [inhibitor, partial curve, poor fit]",
CCn1c(=O)c2sccc2n2c(CCC(=O)Nc3cc(C)cc(C)c3)nnc12,,inactive: -2.82%
CCOC(=O)C1CCCN(c2nc3c(S(=O)(=O)c4ccc(C)c(C)c4)nnn3c3ccc(Cl)cc23)C1 (configuration not stated),,inactive: 2.15%
O=C(N/N=C/c1cccs1)c1cc(-c2ccc3ccccc3c2)n[nH]1,"inconclusive: 17.8 µM [activator, partial curve]",
CCOc1ccc(-c2nnc(SCc3nnc(-c4ccccc4)o3)n2-c2ccccc2F)cc1,"inconclusive: 11.2 µM [inhibitor, partial curve]",
O=C(CN1CCC(C(=O)c2ccc(F)cc2)CC1)Nc1ccc(F)cc1,,inactive: -6.15%
CCOc1cc(N2CCOCC2)c(OCC)cc1NC(=O)COc1cccc2cccnc12,"inconclusive: 14.1 µM [inhibitor, partial curve]",
O=C1CC(SCCc2nc3ccccc3[nH]2)C(=O)N1c1ccc(Cl)cc1 (configuration not stated),"inconclusive: 39.8 µM [inhibitor, single point]",
CC(C)CCOc1ncnc2c1sc1nc3c(cc12)CSC(C)(C)C3,"inconclusive: 10 µM [inhibitor, partial curve]",
COC(=O)c1cc(N=Nc2sc(N)nc2C)cc(C(=O)OC)c1,active: 15.8 µM,
COc1ccccc1NC(=S)NCCc1ccccc1,,inactive: -8.46%
Cc1ccc(Nc2nc(-c3c(C)nc4ncccn34)cs2)cc1,active: 14.1 µM,
COc1ccc(Nc2nc3ccccc3c(=O)s2)c(OC)c1,,inactive: -0.625%
CCOc1cc(N2CCOCC2)c(OCC)cc1NC(=O)c1ccc(C)cc1,,inactive: -6.02%
COc1ccccc1-c1cc(C(=O)Nc2sc3c(c2C#N)CCCC3)no1,active: 35.5 µM,

SMILES,Potency,"activity, negative = inhibition"
COc1ccc(NC(=O)c2c(NCc3ccc(C)o3)sc3c2CCC(C)C3)c(OC)c1 (configuration not stated),"inconclusive: 14.1 µM [inhibitor, partial curve]",
COC(=O)C1=C(C)OC(N)=C(C#N)C1c1c(C)nn(-c2ccccc2)c1Cl (configuration not stated),"inconclusive: 25.1 µM [inhibitor, partial curve, poor fit]",
COC(=O)N/N=C\c1cccc(OC(=O)c2cccs2)c1,,inactive: -12.5%
COC(CN1C(=O)C(=O)/C(=C(/O)c2ccccc2)C1c1ccccn1)OC (configuration not stated),,inactive: -6%
CC(=O)Nc1ccc(N(C)C)cc1[N+](=O)[O-],"inconclusive: 17.8 µM [inhibitor, partial curve, poor fit]",
CCCCCOc1ccc(CSC2=NCCN2)cc1[N+](=O)[O-],"inconclusive: 25.1 µM [inhibitor, single point]",
CNCCCOc1ccc(C(C)(C)c2ccccc2)cc1,,inactive: -4.31%
O=C(COc1ccccc1F)OCc1cc(=O)n2nc(-c3cccs3)sc2n1,"inconclusive: 8.91 µM [inhibitor, partial curve, poor fit]",
O=C(O)c1ccc(CSc2n[nH]c(-c3ccco3)n2)cc1,"inconclusive: 44.7 µM [inhibitor, single point]",
COc1ccc(OCCCN2CCCCCC2)cc1,"inconclusive: 15.8 µM [inhibitor, partial curve]",
COC(=O)c1c(-c2cccc(C)c2)csc1NC(=O)C1CCCO1 (configuration not stated),"inconclusive: 12.6 µM [inhibitor, partial curve]",
CCN(CC)S(=O)(=O)c1nnc(NC(=O)COc2ccccc2Cl)s1,"inconclusive: 5.01 µM [inhibitor, partial curve]",
CC(=O)N1CCn2c3c(c(=O)c4cc(C)ccc42)CCC31 (configuration not stated),active: 25.1 µM,
CCOc1ccc(C(=O)Nc2cccc(NC(=O)c3ccco3)c2)cc1Cl,,inactive: -0.717%
COc1cc(OC)c(Nc2cc(C)nc3ncnn23)cc1Cl,,inactive: -5.09%
COCCNC(=O)c1ccc(N(C)S(=O)(=O)c2ccc(OC)c(OC)c2)cc1,,inactive: -0.662%
O=C(Nc1cccc(-c2csc(-c3ccccc3)n2)c1)c1cccs1,"inconclusive: 0.891 µM [inhibitor, full curve, poor fit]",
COC(=O)C1=CC(C(=O)c2cccs2)=NN(c2ccc(OC)cc2)C1C(=O)OC (configuration not stated),active: 14.1 µM,
N#Cc1cccc(NC(=O)COC(=O)c2ccccc2C(=O)c2ccc(Cl)c([N+](=O)[O-])c2)c1,"inconclusive: 3.16 µM [inhibitor, partial curve, poor fit]",
N#CC1=C(N)N(c2ccc(Oc3ccccc3)cc2)C(=O)C1,"inconclusive: 28.2 µM [inhibitor, partial curve]",
Cc1ccc(C(=O)COC(=O)c2ccc3c(c2)C(=O)N(c2cccc4ncccc24)C3=O)cc1C,"inconclusive: 12.6 µM [inhibitor, partial curve]",
N#Cc1c(NC(=O)C2CC(Cl)=CCC2C(=O)O)sc2c1CCCC2 (configuration not stated),"inconclusive: 39.8 µM [inhibitor, single point]",
O=S(=O)([N-]c1nc2ccccc2nc1-[n+]1ccc(CCCc2ccccc2)cc1)c1cccs1,"inconclusive: 15.8 µM [inhibitor, partial curve]",
COc1ccc(C)cc1NC(=O)c1cc(S(=O)(=O)NC2CCCCCC2)ccc1F,,inactive: -11%

SMILES,Potency,"activity, negative = inhibition"
N#CC1=C2SCN(Cc3ccccc3)CN2C(=O)CC1c1cccs1 (configuration not stated),active: 28.2 µM,
C/C(=N\N1CCN(c2ccccc2)CC1)c1ccncc1,"inconclusive: 10 µM [inhibitor, partial curve]",
CCCCn1c(O)c(N=NC(=O)c2ccncc2)c2cc(Br)ccc21,"inconclusive: 14.1 µM [inhibitor, partial curve]",
CC1CCCCN1CCCNC(=O)Cn1ncc2c([nH]c3ccccc32)c1=O (configuration not stated),,inactive: -18.3%
COc1ccc(C(=O)NC(=S)N2CCCc3ccccc32)cc1OC,"inconclusive: 25.1 µM [inhibitor, single point]",
Cc1ccccc1CNC(=O)C1CCN(c2nn3cc(-c4ccc(F)cc4)nc3s2)CC1,"inconclusive: 0.891 µM [inhibitor, full curve]",
Cc1cc(OC(C)C)nc(-c2ccccc2O)n1,"inconclusive: 31.6 µM [inhibitor, single point]",
CCC(CC)c1nn2c(=O)cc(COc3ccc(NC(=O)c4ccccc4Cl)cc3)nc2s1,"inconclusive: 0.794 µM [inhibitor, full curve]",
COc1cc(/C=C(/C#N)c2nc3ccccc3[nH]2)ccc1OC(=O)c1ccco1,"inconclusive: 12.6 µM [inhibitor, partial curve]",
CCOc1ccc(Cn2nnc3c(=O)[nH]c(C4CCN(C(=O)c5ccccc5)CC4)nc32)cc1,"inconclusive: 7.94 µM [inhibitor, full curve, poor fit]",
O=C(CN1CCCCC1)Nc1ccc(Br)cc1[N+](=O)[O-],,inactive: -11.6%
Cc1ccc(S(=O)(=O)NCCSc2nnnn2-c2cc(C)ccc2C)cc1,,inactive: -1.63%
Nn1cnnc1N/N=C/c1ccc(Cl)c([N+](=O)[O-])c1,active: 25.1 µM,
COc1cc(/C=C2\SC(c3ccc(C)cc3)=NC2=O)cc(OC)c1OC,active: 14.1 µM,
O=C(CCNc1ccccc1)c1ccc2c(c1)OCO2,"inconclusive: 11.2 µM [inhibitor, partial curve]",
COC(=O)C1=C(C)N(Cc2ccc(C)cc2)C(=O)/C1=C\c1ccc(O)c(OC)c1,active: 14.1 µM,
COc1cccc(Oc2nc(-c3ccncc3)nc3ccccc23)c1,"inconclusive: 22.4 µM [inhibitor, partial curve]",
COC(=O)c1ccc(-c2noc(CN(C)CCC3CCCCO3)n2)cc1 (configuration not stated),active: 11.2 µM,
Cc1ccc(NC(=O)Cn2c(=O)n(CCCCCC(=O)NCc3ccc(F)cc3)c(=O)c3sccc32)cc1C,,inactive: 17.8%
O=C1Nc2c(c(=O)[nH]c(=O)n2-c2ccccc2)C1(NS(=O)(=O)c1ccc(Cl)cc1)C(F)(F)F (configuration not stated),,inactive: 2.94%
Cc1nc2c(c(=O)n1Cc1ccccc1Cl)c1nc3ccccc3nc1n2Cc1ccco1,"inconclusive: 20 µM [inhibitor, partial curve, poor fit]",
CC(C)c1ccc(NC(=O)c2cc(S(=O)(=O)NCC3COc4ccccc4O3)ccc2F)cc1 (configuration not stated),,inactive: -14.2%
CCN(CC)CCn1c(=S)[nH]c2cc3c(cc2c1=O)OCO3,,inactive: -5.84%
COc1cc2c(cc1NC(=O)CSc1nnc(COc3ccc(Cl)cc3)n1C)oc1ccccc12,"inconclusive: 2.51 µM [inhibitor, full curve, poor fit]",
